# Data published in the supplement of paper PMC12632987.
# Over roughly 4,500 sequences, “median log2 fold change of GCK-ALFA target abundance (FLAG IP / Myc IP barcode read proportion)” has its median near 0.078; the lowest 2% begin near -0.6. The list shows a part of the results.
# B1: GBRAP_52_5871 (protein)
# chain: ELEEAVKLLEEAVEAMKAGKEEEAKKLLKEIVETFSEETILAAVKRLAEKIKTKSLEEAEAFFETAELLADIMDEAGRDPNIASEIEAIAGAALYEVEKK
# B2: GBRAP_11_2630 (protein)
# chain: KKEALKKAAELAEKAIEKVEELLKKGVDDEELLKELEELLEKLKELVEKHADEALKTLVEVAEELWKEALENPERREEYLKLLLNALRILKAELEEKIEE
# B3: GBRAP_11_2784 (protein)
# chain: EKEKLEKIAEIAEKLAETLEKLLEEGVDNEELIKKAEELLKELKELVKEHPNKSLQKLAEIAEELWKEFLEDKENAEEYAKQLLAAVRVLHGQVLLELEE
# B4: GBRAP_128_3312 (protein)
# chain: IDEEIIKKAKELIEKLVKATVEEAAKLTEEIIELMGKASEEERDIIVELFEEGLKKLTAEKLEVVADVLRKQQPKLDPYGANLAAELEVEALNLAEEKEE
# B5: GBRAP_139_3727 (protein)
# chain: SAEEEAVKKVVELAKKSVEEGNALVGEVADLLNSMSLETAEKALEAIAKEMEEFSFEEVEKFFDELEKEILEKHKNEDLAELVEAARNRALARVAVREEE
# B6: GBRAP_35_5622 (protein)
# chain: DTDEEIAEATVAVLEDTLAAAGEVPAETFLATALKVAKAGLEVAKELKDNKELAKKILDAAKKLLKTALELAKKTGAPEEVIKELEKLLKEAEKLEKELK
# B7: GBRAP_159_3960 (protein)
# chain: MEERKEALRADLKALGASEELIEAAVEALELAEEGEDWASVAAHLLHMVTVLGATPEQVLVVLRHLPPELARRVAELLAEWAREQGREELAAALEELLAA
# B8: GBRAP_128_3478 (protein)
# chain: SVEEVVAKTKELMEKIKNSSLEEVKKLSEELVDLLGSANPEAREAATEVIIEQLPKLSVEKLEVLADVLREKRPELDPLAATQANEIAIEALELAEEKEE
# B9: GBRAP_52_6378 (protein)
# chain: MVEEAKKLLREAIKLIMEGGEEEEIRKIAKEILKYSEEVIEEAAERLAEELKGLSPEEAEKALEATLKLGDILIEEGLPEEVASLIEAEIGKAAYEVLQR
# B10: GBRAP_128_3596 (protein)
# chain: STAAVRAWTAATLDAMKTADAAERRALAEELMARFGELSLEEREAMAATIKERAPELSAEDLEILADAARAARPRLDPEGANLLADVEVELLNEAEEQEE
# B11: GBRAP_52_6248 (protein)
# chain: MSEERRAAAKEILELVLAGDYEGARALAREIARTWNEEELEAFIDEFAELVKTLPKENLEKAWKAAEIIAEVLEEEGKSEELVDLLEAKTAAALVEVEKK
# B12: GBRAP_139_3699 (protein)
# chain: SELEEKLERARELTRKMEENPEESIKEIVELLKSSSLEDAEKLVREIAEELSKLPLDKAEEYADLILERIEEEIEDEDKVDLAEAILNGALARKAYEEEL
# B13: GBRAP_150_3902 (protein)
# chain: DLEELLTLVSTAIDILEAILDGHLDLLPHAVKVMKAALEEAKEISPEVKKLAEEALKKVEEALKLKEEGGPEEEIKKAVQEALELAEKLEELVEKLIEEE
# B14: GBRAP_78_6695 (protein)
# chain: EVEEHLEKALEELGEAATLLAKMGTEEALDILGIVIDVAAEVEEALFGKPDLEELKKALKETEKALKEVEKIDSEEAKEAAEKLKKAIEHLKKAIKELEA
# B15: GBRAP_137_3678 (protein)
# chain: AKATVKVKEEDDLVVITVTYDDPEKAEEVEEELLDIADEVGALAVSVERDEDGNLVVEIVVPKEKAEELLKKVLEFLKKHADVKLITEKDGEVKEEEFKK
# B16: GBRAP_160_4278 (protein)
# chain: SEEMKKLAEELEEDKEEILELVDELSPEEVRNDAVVELGSHLLEAIELELITDEEEEELAEIVDKLDEDLKAAENASPEEIRAIIEEHFEKAKEILLKSK
# B17: GBRAP_83_6971 (protein)
# chain: AEKIVVATTPDHIDSAIEAAKDLATEEGYEVTVAIIGKPEEALEAAKKAAEALKDIKNVSIEVIVENVREEEAEKLKKEVEEIGKKYGLKVEFRAELLPP
# B18: GBRAP_78_6627 (protein)
# chain: EVEELLEKALEKVEEAAKLATKIPSEKAIDILDELIDAFEYLEEAIEEGGDLEKIEKALKELKKALELIKEQNDPKLEPLKKEVEEAIKLLEKAKKKIKE
# B19: GBRAP_43_5767 (protein)
# chain: SKELVEGAFETAILLLEDPSISEETKVKAIIAAMELAADEGYVDKELLEKVVELAGKTLSKESLEKILKAAKKLAKEYPESKEAFEEAAKKLEEAIAKKE
# B20: GBRAP_52_6254 (protein)
# chain: MRARLRADAREIVALVAAGREEEARALARDIAENYNEEELRLFVDEMAALAREARPEELDTVWRAAELMAEELEAAGKPEILVDDLLARVAAAAVEVLAR
# B21: GBRAP_139_3686 (protein)
# chain: SALDEVVKKAKELTKKAVEEGEEYVKKLVEFLATLSEEEFEAAAKAVAETLQEYDLETAERLADLIEEEAEKILKDEDKRDIVEAELNRALALRAVREEE
# B22: GBRAP_160_4013 (protein)
# chain: MEEIEKLKKEIEEIFEETIEDMEGLTPEERLTLIRGAVGDILQLAAESPAVSDETEDKIAEIGDELIKEFEKNKDAPLEVWKELIKKALEKIKELLKKEE
# B23: GBRAP_128_3374 (protein)
# chain: VDEEKLKKIKELVEKMLTSTVEEVAELTKEIIELLKTASPEEQEAAVEIILEKLPEFTVEKLDAIADVIREAMKTASPYLQELLAEVEVEALNVAEEKEE
# B24: GBRAP_137_3669 (protein)
# chain: MIEAEIELENGLAFARITVEGSKEELERAAEIAEDIAGEIPNLAVSVELSEDGTLVIDVFGTKEDVLKFLKELAKRLNKTVKVKTKNLETGEEKEEVIEP
# B25: GBRAP_11_2658 (protein)
# chain: KKEILLKAAELAEKAAKALEKLIEVGTDDEELQKEIEKLLKEIKELADKHFDEALRSDVDVAVELWKEFLEDEENKEKYAKELLAAVRVLEGNLLLAADE
# B26: GBRAP_9_7133 (protein)
# chain: REELIKKMAEVVKEMVEDLAEAIPELSEEKKEEFKKRVDELKEELLADKEATPEEIAKRFKELVKEIEEEVKKIVDEDLAKIARAIALTAIEEIDEIAEE
# B27: GBRAP_125_3117 (protein)
# chain: HMEEALEDLRLLMRALGFSEEDIEEAVELARRFGLKNTMIAIALALGEEELADLIEQLSEEAVREALARVAAHIRAHPDLTPEEVKERFREVLREALARE
# B28: GBRAP_184_5221 (protein)
# chain: TVVREAVEAKTAEEAIAKAEKVIKEAQAAGKKLELTVFLENMSLEEIEEVMKYLAKKKEEGLIENAIVEVLDERSEEEVDELVKIADKYGIRLVVALPDE
# B29: GBRAP_160_4202 (protein)
# chain: EEKVKKIIEELKEETEEVIKLLDEVSVEEAAVFAEVEFGSVLMLAVELGIENDEILDVIDEAGDKIVKYLKENKDASVEELKKKIKEITEEAIKKIKELA
# Molecular target: GABARAP, O95166
# Assay: median log2 fold change of GCK-ALFA target abundance (FLAG IP / Myc IP barcode read proportion) (log2 ratio); each designed protein is fused to an ALFA-tag nanobody in HEK293 cells to bring the named protein to FLAG-tagged glucokinase (GCK); Myc marks an untargeted standard; higher = target protein stabilised (more abundant)
# Conditions: target protein: 3xFLAG-MCP-GCK-ALFA reporter; HEK293 landing pad (RPLP)
# In short: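 An ALFA-nanobody-fused binder library was recombined into HEK293 landing-pad cells and induced with 2 μg mL^−1 doxycycline. Cells were transfected with a plasmid expressing a FLAG-tagged target and a Myc-tagged standard. After 48 h, lysates underwent anti-FLAG and anti-Myc immunoprecipitation, and circular RNA barcodes were reverse transcribed, amplified and sequenced. Target abundance is the per-binder median log2 ratio of FLAG to Myc barcode read proportions. Barcodes needed ≥10^−7 proportion in both replicates, binders ≥3 barcodes per replicate, and a 10^−6 pseudocount was added; the two replicates were pooled.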
# Sequence of GABARAP, O95166 (O95166 whole entry, the tested form may be a part): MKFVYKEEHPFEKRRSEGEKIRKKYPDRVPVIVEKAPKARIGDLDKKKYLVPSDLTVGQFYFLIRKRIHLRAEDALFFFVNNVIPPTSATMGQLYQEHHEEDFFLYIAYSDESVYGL
row,Binder,median log2 fold change
1,B1,-0.00368
2,B2,0.295
3,B3,0.137
4,B4,0.219
5,B5,0.17
6,B6,-0.368
7,B7,0.154
8,B8,0.196
9,B9,0.0773
10,B10,0.236
11,B11,0.0309
12,B12,0.177
13,B13,0.127
14,B14,0.172
15,B15,0.322
16,B16,-0.312
17,B17,0.238
18,B18,-0.061
19,B19,0.243
20,B20,-0.285
21,B21,0.209
22,B22,0.141
23,B23,0.174
24,B24,0.0022
25,B25,0.391
26,B26,0.372
27,B27,-0.179
28,B28,0.1
29,B29,-0.374
